Out of some 77,000 compounds screened, about 4,600 (6%) were called active. The shares of active, inactive and inconclusive entries below differ from those in the screen.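 How the source made its calls: active means mean inhibition above about 93%, with at least 55% of replicates each passing it (limit read from the data, passing the limit was not always enough); inconclusive means only one of those two conditions holds; inactive means neither condition holds.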
Assay: T. cruzi intracellular proliferation inhibitors, primary screen, cell-based, beta-gal Tulahuen parasites, NIH3T3 host, luminescence (AID 624255)
Conditions: T. cruzi beta-gal in NIH3T3, GalScreen luminescence, 90 h; at 8.34 µM; hits give high values

Row | Structure (SMILES) | inhibition
1 | Cc1cccc(S(=O)(=O)N2CC[C@@H]3[C@H](CO)N(C)c4ccc(Br)cc4[C@@H]32)c1 | inconclusive: 97.5%
2 | O=C(Nc1ccc(C(F)(F)F)cc1)Nc1ccc2c(c1)[C@H]1C[C@H](CC(=O)N3CCc4ccccc4C3)O[C@H](CO)[C@H]1O2 | inconclusive: 99.9%
3 | COc1cccc(NC(=O)N(C)C[C@@H]2Oc3cc(C#Cc4ccccc4)ccc3S(=O)(=O)N([C@H](C)CO)C[C@H]2C)c1 | inconclusive: 81.8%
4 | COc1cccc(C#Cc2ccc([C@H]3[C@H](C#N)N(C(=O)C4CCC4)[C@H]3CO)cc2)c1 | active: 96.8%
5 | C[C@H]1CN([C@@H](C)CO)C(=O)c2cc(NC(=O)Nc3ccc4c(c3)OCO4)ccc2O[C@@H]1CN(C)Cc1ccc(Oc2ccccc2)cc1 | active: 119%
6 | C[C@H]1CN([C@@H](C)CO)C(=O)CCCn2nncc2CO[C@@H]1CN(C)Cc1ccc(C(=O)Nc2ccccc2N)cc1 | active: 103%
7 | O=C(NCc1ccc(F)cc1)[C@H]1[C@H](CO)[C@H]2Cn3c(cccc3=O)[C@H]2N1CC1CC1 | inactive: 39.9%
8 | Cn1cnc(S(=O)(=O)N2CCCCN3[C@H](C2)[C@@H](c2ccc(C#CC4CCCC4)cc2)[C@@H]3CO)c1 | inactive: 76.5%
9 | O=S(=O)(c1ccccc1)N1CCCCN2[C@H](C1)[C@H](c1ccc(C#Cc3ccccc3)cc1)[C@@H]2CO | inconclusive: 95.3%
10 | C[C@H]1CN([C@@H](C)CO)C(=O)c2cc(NS(=O)(=O)c3ccc(Cl)cc3)ccc2O[C@@H]1CN(C)Cc1ccc(C(F)(F)F)cc1 | inconclusive: 118%
11 | C[C@H](CO)N1C[C@H](C)[C@@H](CN(C)C(=O)Nc2ccc(F)cc2)Oc2ccc(NC(=O)Cn3cnnn3)cc2CC1=O | inactive: 8.41%
12 | C[C@H](CO)N1C[C@H](C)[C@@H](CN(C)S(=O)(=O)c2cccc(F)c2)Oc2ncc(C#CC3CCCC3)cc2C1=O | active: 119%
13 | COc1ccccc1NC(=O)N1C[C@H](O)COC[C@H]2O[C@H](CC(=O)NCCc3ccncc3)CC[C@@H]21 | inconclusive: 110%
14 | C[C@@H]1CCCCO[C@H](CN(C)S(=O)(=O)c2ccccc2)[C@H](C)CN([C@H](C)CO)C(=O)c2cc(NC(=O)Nc3cccc4ccccc34)ccc2O1 | active: 108%
15 | Cc1ccc(-c2ccc3c(c2)O[C@@H](CN(C)Cc2ccncc2)[C@H](C)CN([C@H](C)CO)S3(=O)=O)cc1 | active: 123%
16 | C[C@@H]1CN([C@@H](C)CO)C(=O)Cc2cc(NS(=O)(=O)c3ccc(Cl)cc3)ccc2O[C@H]1CN(C)Cc1ccc(Cl)c(Cl)c1 | inconclusive: 98.3%
17 | C[C@H](CO)N1C[C@H](C)[C@H](CN(C)S(=O)(=O)c2ccc(F)cc2)OCCCC[C@H](C)Oc2ccc(NC(=O)Nc3ccc4c(c3)OCO4)cc2C1=O | active: 106%
18 | O=C(Nc1cc(Cl)cc(Cl)c1)N[C@H]1CC[C@@H](CCNS(=O)(=O)c2cccc(F)c2)O[C@@H]1CO | inconclusive: 97.4%
19 | CS(=O)(=O)N1[C@@H](C#N)[C@@H](c2ccc(C#CC3CC3)cc2)[C@@H]1CO | active: 103%

Row | Structure (SMILES) | inhibition
20 | C[C@H](CO)N1C[C@H](C)[C@@H](CN(C)C(=O)Cc2ccncc2)Oc2ncc(C#Cc3ccccc3F)cc2C1=O | inconclusive: 96.5%
21 | C[C@@H]1CN([C@@H](C)CO)C(=O)c2cccc(NC(=O)Nc3ccccc3)c2O[C@H]1CN(C)Cc1ccc(C(=O)Nc2ccccc2N)cc1 | inactive: 89.1%
22 | CC(=O)N(C)C[C@H]1Oc2cc(C#CC3CCCCC3)ccc2S(=O)(=O)N([C@@H](C)CO)C[C@@H]1C | inconclusive: 102%
23 | COc1ccc(-c2ccc3c(c2)[C@@H]2[C@@H](CCN2C(=O)Cc2ccccn2)[C@@H](CO)N3C)cc1 | inconclusive: 98.7%
24 | C[C@H](CO)N1C[C@H](C)[C@H](CN(C)Cc2ccc(Cl)c(Cl)c2)OCCCC[C@H](C)Oc2ccc(NC(=O)Nc3ccc(F)cc3)cc2C1=O | active: 100%
25 | Cc1noc(C)c1S(=O)(=O)Nc1cccc2c1O[C@H](CN(C)Cc1ccc(C(=O)Nc3ccccc3N)cc1)[C@H](C)CN([C@@H](C)CO)C2=O | inconclusive: 113%
26 | OC[C@H]1Nc2ccc(C#Cc3ccc(F)cc3)cc2[C@@H]2[C@H]1CCN2Cc1ccc2c(c1)OCO2 | inconclusive: 136%
27 | C[C@H]1CN([C@@H](C)CO)S(=O)(=O)c2ccc(C#CCN(C)C)cc2O[C@@H]1CN(C)Cc1ccc(F)cc1 | active: 115%
28 | CC(C)NC(=O)N(C)C[C@@H]1OCCCC[C@H](C)Oc2ccc(NC(=O)Nc3ccc(C(F)(F)F)cc3)cc2C(=O)N([C@H](C)CO)C[C@@H]1C | active: 99.7%
29 | O=C(Nc1cc(F)ccc1F)N1CCCCN2[C@@H](CO)[C@H](c3ccc(-c4cccnc4)cc3)[C@@H]2C1 | inconclusive: 95.2%
30 | CN(C)C(=O)c1ccc(-c2ccc([C@H]3[C@@H](C#N)N(C(=O)C4CCCCC4)[C@H]3CO)cc2)cc1 | inconclusive: 95.8%
31 | C[C@@H]1CCCCO[C@@H](CN(C)S(=O)(=O)c2ccccc2)[C@H](C)CN([C@H](C)CO)C(=O)c2cc(NS(=O)(=O)c3ccc(Cl)cc3)ccc2O1 | active: 110%
32 | COCC(=O)N1[C@@H](CO)[C@@H]2c3ccccc3N(C(=O)Nc3cc(F)ccc3F)C[C@@H]21 | inactive: -7.09%
33 | CC(C)NC[C@H]1[C@@H](c2ccc(C3=CCCCC3)cc2)[C@@H](CO)N1C(=O)NC(C)C | inconclusive: 95.3%
34 | C[C@H]1CN([C@@H](C)CO)S(=O)(=O)c2ccc(/C=C/c3ccccc3)cc2O[C@H]1CN(C)C(=O)c1ccc2c(c1)OCO2 | inconclusive: 99.4%
35 | COc1cccc(NC(=O)C[C@@H]2CC[C@H]3[C@@H](COc4ccc(NC(=O)c5ccccc5F)cc4C(=O)N3C)O2)c1 | inactive: 35%
36 | C[C@H](CO)N1C[C@H](C)[C@@H](CN(C)Cc2ccc(Oc3ccccc3)cc2)Oc2c(NC(=O)Nc3ccc4c(c3)OCO4)cccc2C1=O | inconclusive: 87.2%
37 | C[C@@H]1CCCCO[C@H](CN(C)S(=O)(=O)c2ccc(F)cc2)[C@@H](C)CN([C@H](C)CO)C(=O)c2cc(NC(=O)C3CCCCC3)ccc2O1 | inactive: 25.4%
38 | O=C(CCN1CCCCC1)N[C@H]1CC[C@H](CCNS(=O)(=O)c2ccc(Cl)cc2)O[C@H]1CO | inactive: -52.6%

Row | Structure (SMILES) | inhibition
39 | C[C@H](CO)N1C[C@H](C)[C@@H](CN(C)Cc2ccncc2)Oc2ncc(C#Cc3ccccn3)cc2C1=O | inconclusive: 79.4%
40 | COc1ccc(NC(=O)N(C)C[C@@H]2OCCCC[C@H](C)Oc3ccc(NC(=O)Nc4ccc5c(c4)OCO5)cc3C(=O)N([C@H](C)CO)C[C@@H]2C)cc1 | inconclusive: 86.6%
41 | C[C@H]1CCCCO[C@H](CN(C)Cc2ccccc2)[C@@H](C)CN([C@@H](C)CO)C(=O)c2cc(NC(=O)NC3CCCCC3)ccc2O1 | inconclusive: 79.4%
42 | OC[C@@H]1[C@H](c2ccc(-c3ccc(F)cc3)cc2)[C@@H]2CN(Cc3cccnc3)CCCCN12 | active: 123%
43 | C[C@H]1CN([C@@H](C)CO)C(=O)Cc2cc(NC(=O)Cc3cn(C)c4ccccc34)ccc2O[C@@H]1CN(C)Cc1ccccc1 | inconclusive: 98.4%
44 | C[C@@H]1CN([C@@H](C)CO)S(=O)(=O)c2ccc(-c3ccncc3)cc2O[C@@H]1CN(C)C(=O)Nc1ccc(C(F)(F)F)cc1 | inconclusive: 84%
45 | COc1ccccc1S(=O)(=O)N(C)C[C@H]1Oc2cc(C#CCC(C)C)ccc2S(=O)(=O)N([C@@H](C)CO)C[C@@H]1C | inconclusive: 80.9%
46 | OC[C@H]1[C@H](c2ccc(C#Cc3ccccc3F)cc2)[C@H]2CN(Cc3cncnc3)CCCCN21 | active: 101%
47 | COc1ccc(CN(C)C[C@@H]2OCCCC[C@@H](C)Oc3ccc(NS(=O)(=O)c4ccc(Cl)cc4)cc3C(=O)N([C@H](C)CO)C[C@H]2C)cc1 | inconclusive: 122%
48 | O=C(c1ccc(F)cc1)N1CCCCN2[C@H](CO)[C@H](c3ccc(/C=C/c4ccccc4)cc3)[C@@H]2C1 | active: 111%
49 | C[C@H]1CN([C@@H](C)CO)C(=O)c2cc(/C=C/c3ccccc3)cnc2O[C@@H]1CN(C)C(=O)C1CCC1 | inconclusive: 97.1%
50 | COc1ccc(S(=O)(=O)N(C)C[C@H]2OCCCC[C@@H](C)Oc3ccc(NC(=O)Nc4ccc(F)cc4)cc3C(=O)N([C@@H](C)CO)C[C@@H]2C)cc1 | inconclusive: 109%
51 | CN(C)C(=O)c1cccc(-c2ccc([C@H]3[C@@H](CO)N4CCCCN(Cc5cccnc5)C[C@H]34)cc2)c1 | inconclusive: 96.6%
52 | Cc1ccc(S(=O)(=O)Nc2ccc3c(c2)C(=O)N([C@H](C)CO)C[C@@H](C)[C@H](CN(C)Cc2ccccc2)OCCCC[C@@H](C)O3)cc1 | active: 93.3%
53 | CNC[C@@H]1Oc2cc(C#CCC3CCCC3)ccc2S(=O)(=O)N([C@@H](C)CO)C[C@H]1C | inconclusive: 101%
54 | N#C[C@H]1[C@@H](c2ccccc2)[C@H](CO)N1C(=O)c1cc(Cl)cc(Cl)c1 | inconclusive: 95.2%
55 | CO[C@@H]1CN(C)C(=O)c2cc(NC(=O)NC3CCCCC3)ccc2OC[C@@H](C)N(CCc2ccccc2)C[C@H]1C | inconclusive: -216%
56 | Cc1cc(C(=O)Nc2cccc3c2O[C@H](CN(C)C)[C@H](C)CN([C@@H](C)CO)C3=O)n(C)n1 | inconclusive: 95.2%
57 | Cc1ccccc1S(=O)(=O)N1[C@H](CO)[C@@H](c2ccc(-c3ccc(F)cc3)cc2)[C@@H]1C#N | inconclusive: 97.4%
